# Experimental data: publication PMC12820563, “FoxP3 forms a head-to-head dimer in vivo and stabilizes its multimerization on adjacent microsatellites”
# Some of the results follow.
# Target: T1, MBP-FoxP1dN (Mus musculus, UniProt P58462 326-579)
# T1 sequence: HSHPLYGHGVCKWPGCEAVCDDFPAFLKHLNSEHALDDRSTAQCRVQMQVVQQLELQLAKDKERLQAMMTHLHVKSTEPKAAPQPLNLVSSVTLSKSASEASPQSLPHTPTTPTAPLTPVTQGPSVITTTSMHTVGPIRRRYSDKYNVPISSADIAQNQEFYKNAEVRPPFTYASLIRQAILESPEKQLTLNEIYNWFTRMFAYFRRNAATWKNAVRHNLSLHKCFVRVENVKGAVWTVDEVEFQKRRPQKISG
# Assay: PD-seq (MBP pull-down with sequencing); 20 mM Tris-HCl pH 7.5, 100 mM NaCl, 1.5 mM MgCl2, 0.4 uM protein, 0.1 uM dsDNA library, 30 min, room temperature, amylose pull-down; high values mean tight binding
# Details: protein: recombinant; tags: His6-MBP; chain copies: 2; dsDNA, one strand shown
# Method in brief: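 The N-terminus-lacking fragment of mouse FoxP3 or FoxP1 carried a His6-MBP tag and was expressed in E. coli. At 0.4 µM it was incubated with 0.1 µM Klenow-filled degenerate double-stranded DNA library for 30 min at room temperature in Tris pH 7.5 buffer with NaCl and MgCl2, and complexes were caught on amylose resin, washed three times, released with proteinase K, PCR-barcoded and Illumina-sequenced. Binding is reads-per-million enrichment of pull-down over input with replicates pooled.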
row,Sequence,binding signal
1,GATGATTGTTCTCCCAGCTGATGAATTTGGATGATCGAGTAAACAAATTTTCCTAATCTTTCTGTTCAAGCGCCATCTAC,0.889 RPM ratio (pull-down/input)
2,GATGATTGTTCTCCCAGCTGATGAATTGGTTCTTTCGAGTAAACAAATTTTCCTAATCTTTCTGTTCAAGCGCCATCTAC,1.04 RPM ratio (pull-down/input)
3,GATGATTGTTCTCCCAGCTGATGAATTTGACAAGTCGAGTAAACAAATTTTCCTAATCTTTCTGTTCAAGCGCCATCTAC,0.82 RPM ratio (pull-down/input)
4,GATGATTGTTCTCCCAGCTGATGAATTTTCTTCGTCGAGTAAACAAATTTTCCTAATCTTTCTGTTCAAGCGCCATCTAC,0.923 RPM ratio (pull-down/input)
5,GATGATTGTTCTCCCAGCTGATGAATTGACCCGGTCGAGTAAACAAATTTTCCTAATCTTTCTGTTCAAGCGCCATCTAC,0.81 RPM ratio (pull-down/input)
6,GATGATTGTTCTCCCAGCTGATGAATTCGATTTCTCGAGTAAACAAATTTTCCTAATCTTTCTGTTCAAGCGCCATCTAC,0.839 RPM ratio (pull-down/input)
7,GATGATTGTTCTCCCAGCTGATGAATTTAGGTTGTCGAGTAAACAAATTTTCCTAATCTTTCTGTTCAAGCGCCATCTAC,1.11 RPM ratio (pull-down/input)
8,GATGATTGTTCTCCCAGCTGATGAATTAAGATTGTCGAGTAAACAAATTTTCCTAATCTTTCTGTTCAAGCGCCATCTAC,1.02 RPM ratio (pull-down/input)
9,GATGATTGTTCTCCCAGCTGATGAATTTGTTCGATCGAGTAAACAAATTTTCCTAATCTTTCTGTTCAAGCGCCATCTAC,1.1 RPM ratio (pull-down/input)
10,GATGATTGTTCTCCCAGCTGATGAATTTGATCCTTCGAGTAAACAAATTTTCCTAATCTTTCTGTTCAAGCGCCATCTAC,0.825 RPM ratio (pull-down/input)
11,GATGATTGTTCTCCCAGCTGATGAATTAAAGGCTTCGAGTAAACAAATTTTCCTAATCTTTCTGTTCAAGCGCCATCTAC,0.942 RPM ratio (pull-down/input)
12,GATGATTGTTCTCCCAGCTGATGAATTTTTGGCTTCGAGTAAACAAATTTTCCTAATCTTTCTGTTCAAGCGCCATCTAC,0.917 RPM ratio (pull-down/input)
13,GATGATTGTTCTCCCAGCTGATGAATTGGCCGTATCGAGTAAACAAATTTTCCTAATCTTTCTGTTCAAGCGCCATCTAC,0.861 RPM ratio (pull-down/input)
14,GATGATTGTTCTCCCAGCTGATGAATTCGGATTATCGAGTAAACAAATTTTCCTAATCTTTCTGTTCAAGCGCCATCTAC,0.894 RPM ratio (pull-down/input)
15,GATGATTGTTCTCCCAGCTGATGAATTGTGATGATCGAGTAAACAAATTTTCCTAATCTTTCTGTTCAAGCGCCATCTAC,1.42 RPM ratio (pull-down/input)
16,GATGATTGTTCTCCCAGCTGATGAATTAGACTATTCGAGTAAACAAATTTTCCTAATCTTTCTGTTCAAGCGCCATCTAC,0.965 RPM ratio (pull-down/input)

row,Sequence,binding signal
1,GATGATTGTTCTCCCAGCTGATGAATTTTCATATTCGAGTAAACAAATTTTCCTAATCTTTCTGTTCAAGCGCCATCTAC,1.06 RPM ratio (pull-down/input)
2,GATGATTGTTCTCCCAGCTGATGAATTGTCGATTTCGAGTAAACAAATTTTCCTAATCTTTCTGTTCAAGCGCCATCTAC,1.08 RPM ratio (pull-down/input)
3,GATGATTGTTCTCCCAGCTGATGAATTACCGCCATCGAGTAAACAAATTTTCCTAATCTTTCTGTTCAAGCGCCATCTAC,1.01 RPM ratio (pull-down/input)
4,GATGATTGTTCTCCCAGCTGATGAATTACTCCCATCGAGTAAACAAATTTTCCTAATCTTTCTGTTCAAGCGCCATCTAC,1.05 RPM ratio (pull-down/input)
5,GATGATTGTTCTCCCAGCTGATGAATTGCCATTGTCGAGTAAACAAATTTTCCTAATCTTTCTGTTCAAGCGCCATCTAC,1.09 RPM ratio (pull-down/input)
6,GATGATTGTTCTCCCAGCTGATGAATTCTTAACTTCGAGTAAACAAATTTTCCTAATCTTTCTGTTCAAGCGCCATCTAC,0.898 RPM ratio (pull-down/input)
7,GATGATTGTTCTCCCAGCTGATGAATTGCTTGGATCGAGTAAACAAATTTTCCTAATCTTTCTGTTCAAGCGCCATCTAC,1 RPM ratio (pull-down/input)
8,GATGATTGTTCTCCCAGCTGATGAATTGTCCGAATCGAGTAAACAAATTTTCCTAATCTTTCTGTTCAAGCGCCATCTAC,1.06 RPM ratio (pull-down/input)
9,GATGATTGTTCTCCCAGCTGATGAATTAGAACGGTCGAGTAAACAAATTTTCCTAATCTTTCTGTTCAAGCGCCATCTAC,0.922 RPM ratio (pull-down/input)
10,GATGATTGTTCTCCCAGCTGATGAATTTACCGCGTCGAGTAAACAAATTTTCCTAATCTTTCTGTTCAAGCGCCATCTAC,1.17 RPM ratio (pull-down/input)
11,GATGATTGTTCTCCCAGCTGATGAATTTGATTCTTCGAGTAAACAAATTTTCCTAATCTTTCTGTTCAAGCGCCATCTAC,0.89 RPM ratio (pull-down/input)
12,GATGATTGTTCTCCCAGCTGATGAATTCTGACGGTCGAGTAAACAAATTTTCCTAATCTTTCTGTTCAAGCGCCATCTAC,0.82 RPM ratio (pull-down/input)
13,GATGATTGTTCTCCCAGCTGATGAATTTAAGGCTTCGAGTAAACAAATTTTCCTAATCTTTCTGTTCAAGCGCCATCTAC,0.888 RPM ratio (pull-down/input)
14,GATGATTGTTCTCCCAGCTGATGAATTGCCGGATTCGAGTAAACAAATTTTCCTAATCTTTCTGTTCAAGCGCCATCTAC,0.886 RPM ratio (pull-down/input)
15,GATGATTGTTCTCCCAGCTGATGAATTGGCTACCTCGAGTAAACAAATTTTCCTAATCTTTCTGTTCAAGCGCCATCTAC,0.813 RPM ratio (pull-down/input)
